# Measurements: PMC12040169 (PLOS Biology, 2025)
# Where two headings read alike, the source gives them in different places. Some of the results follow.
# Test system: T1, C. trachomatis L2/434/Bu expressing GFP (CTL2-GFP)
# T1 construct: L2/434/Bu GFP intracellular growth in HeLa cells
# Parameters: species or system HeLa; C. trachomatis total inclusion area by high-content imaging, normalised to DMSO
# Outline: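 High-content imaging followed the bulk GFP/resorufin measurement: fixed, Hoechst-stained cells were scored for GFP inclusions and host nuclei per well. Total inclusion area and count served as growth proxies, nuclei number as the viability proxy. MIC calculation matched the bulk assay.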
# [1] = total inclusion area; 28.5 h, 10 µM; inhibitor
SMILES,% of control remaining [1],"% of control remaining (total inclusion area, 28.5 h, 10 µM, inhibitor)"
CCCc1cc(C(=O)N2CCCN(Cc3cnn(CC)c3)CC2)[nH]n1 [CBK305293],96.8359,
Cc1cc(I)ccc1NCC(=O)NN [CBK261738],98.1744,
O=S(=O)(c1ccc(OC(F)(F)F)cc1)N1CCCCC1CO (stereo not drawn) [CBK051527],89.5807,
COCCCN1C(=O)C(O)=C(C(=O)c2ccc(Cl)cc2)C1c1cccc(O)c1 (stereo not drawn) [CBK264892],113.191,
CCn1cc(CN2CCCN(C(=O)c3cc(C4CC4)on3)CC2)cn1 [CBK305401],52.2599,
Cc1cc(NS(=O)(=O)c2cc(OCC(N)=O)c(C)cc2Cl)no1 [CBK266456],119.685,
CCN1CCN(c2ccc(NC(=O)Cc3cn4ccsc4n3)cc2)CC1 [CBK305892],38.3956,
CC(=O)Nc1ccccc1NC(=O)c1ccccc1CCc1ccccc1 [CBK268621],104.672,
CC(C)N1CCOC[C@H]1c1nc(-c2ccc(S(C)(=O)=O)cc2)c[nH]1 [CBK289301],91.3453,
Cn1nccc1NS(=O)(=O)c1cc(C(F)(F)F)cc(C(F)(F)F)c1 [CBK062090],97.8084,
Cc1nc(C2CCCN(C(=O)C3CCCO3)C2)c2sccn12 (stereo not drawn) [CBK282241],93.509,
CN(Cc1nc2c(s1)CCCC2)C(=O)COc1ncnc2ccccc12 [CBK307151],37.0216,
COc1cc(/N=C(\N)Nc2nc(=O)cc(CSc3ccc(C)cc3)[nH]2)cc(OC)c1 [CBK265532],109.835,
O=S(=O)(NC1c2cccc3cccc(c23)C1N1CCNCC1)c1ccc(Cl)cc1 (stereo not drawn) [CBK264082],92.0612,
CN(C)C(=O)CN1C(=O)N2CCCN=C2c2ccc(Cl)cc21 [CBK284392],75.642,
COc1cccc(Oc2nccnc2-c2cnn(C)c2)c1 [CBK107071],56.773,
O=C(Nc1ccc(F)cc1)Nc1cccnc1Cl [CBK058509],75.5862,
O=C(O)CC(C(=O)Nc1ccc(Cl)cc1)C1CCCO1 (stereo not drawn) [CBK264583],117.011,
CCC(=O)N[C@H]1CC[C@@]2(Cc3ccc(OC)cc3)CCN(C)[C@H]2C1 [CBK024126],95.1452,
CC(C)(C)C(=O)NC(c1nccs1)C1CCN(C(=O)C2CC2)CC1 (stereo not drawn) [CBK284678],82.7133,
CSc1cccc(CN(C)C(=O)c2cc(C#N)c(=O)[nH]c2C)c1 [CBK306839],78.5135,

SMILES,% of control remaining [1],"% of control remaining (total inclusion area, 28.5 h, 10 µM, inhibitor)"
COc1ccc([C@@]23CC[C@@H](NC(=O)Nc4cc(C)ccc4F)C[C@@H]2N(C)CC3)cc1OC [CBK036509T],76.6958,
Cc1ccc(-c2cc(C(=O)N3CCOCC3)c3cc(Br)ccc3n2)cc1 [CBK066901],73.8909,
COc1ccc(N2C(=O)CSC23C(=O)N(Cc2ccc(Cl)cc2)c2ccccc23)cc1 (stereo not drawn) [CBK092396],78.7901,
Cc1nc(-c2ccco2)nc2sc(C(=O)N(C)CC3COc4ccccc4O3)c(C)c12 (stereo not drawn) [CBK295347],122.655,
O=C(C1COc2ccccc2O1)N(Cc1cccnc1)c1nc2c(F)cccc2s1 (stereo not drawn) [CBK294421],100.947,
Cc1cnn(CC(=O)NC(C)c2cc3cc(Cl)ccc3o2)c1 (stereo not drawn) [CBK281447],108.876,
CC(NC(=O)CCc1cscn1)c1nc(-c2ccncc2)cs1 (stereo not drawn) [CBK305260],70.4573,
O=C1NC2(CCN(C(=O)CCc3ccc(-c4ccccc4)o3)CC2)Nc2ccccc21 [CBK286316],68.5235,
CC(CN1CCOCC1)C(=O)N1CC(C(=O)N2CCN(c3ccccc3)CC2)C1 (stereo not drawn) [CBK286047],106.96,
CC(C)C(Nc1nc2ncn(Cc3ccccc3)c2c(=O)[nH]1)C(=O)O (stereo not drawn) [CBK261685],97.4518,
COc1cncc(-c2cncc(N[C@H](C)c3ccccc3)n2)c1 [CBK065537],96.9966,
CCN1CC2(CCN(Cc3nc4ccccc4s3)CC2)c2ccccc21 [CBK136993],71.5392,
Cc1cc(COC(=O)N2CCCC(F)(F)C2)cc(C)n1 [CBK200151],115.868,
CCN(CC)CC(=O)Nc1ccc(Br)cc1C(=O)c1ccccc1 [CBK262983],96.179,
c1ccc(CNCc2nc(-c3ccccc3)no2)cc1 [CBK024404],100.405,
COC(=O)c1ccc(COc2nc3ccccc3nc2/C=C/c2cccc([N+](=O)[O-])c2)cc1 [CBK268776],101.595,
CCC(O)c1cc2n(n1)CCN(C(=O)c1cn(-c3ccccc3)nn1)C2 (stereo not drawn) [CBK306708],71.644,
O=C(CN1CCOCC1)N1CCc2ccccc21 [CBK200271],75.2684,
Cc1cccc(C(=O)N2CCN(Cc3cc(=O)n4ccsc4n3)CC2)c1 [CBK305037],74.0389,
Nc1ncc(-c2ccncc2)nc1NCc1cccnc1 [CBK063879],129.478,
COc1cc(-c2cncc(NCCc3ccncc3)n2)cc(OC)c1OC [CBK065405],127.188,

SMILES,% of control remaining [1],"% of control remaining (total inclusion area, 28.5 h, 10 µM, inhibitor)"
COc1ccc(NC(=O)c2c(NC(=O)CN3CCCC(C)C3)sc3c2CCC3)cc1 (stereo not drawn) [CBK265061],106.07,
O=C(O)c1ccc2c(c1)C(=O)N(c1ccc(/C=C/C(=O)c3ccccc3)cc1)C2=O [CBK261181],102.006,
Cc1ccc2cccc(OS(=O)(=O)c3ccc(Cl)c(C)c3Cl)c2n1 [CBK263984],74.4292,
OCc1ccccc1-c1cncc(NCCc2c[nH]c3ccccc23)n1 [CBK037852],88.9113,
O=C(Cn1c(=O)cc(O)c2ccccc21)N1CCN(c2ccccn2)CC1 [CBK291117],106.518,
CCOC(=O)CCNC(=O)c1cc2cccc(OC)c2o1 [CBK149816],104.758,
COc1ccc(Nc2cc(-c3ccc(SC)cc3)ncn2)c(C)c1 [CBK091042],107.323,
COc1ccc(OC(C)C(=O)Nc2ccc(S(N)(=O)=O)cc2)cc1 (stereo not drawn) [CBK263646],106.695,
O=C(O)CC(NC(=O)c1ccccc1)c1ccco1 (stereo not drawn) [CBK268843],106.894,
CCc1nnc(CN2CCCC(c3cc(C(N)=O)[nH]n3)C2)o1 (stereo not drawn) [CBK305213],28.7406,
C(=C\c1cccc(Nc2ccc(Oc3ccccc3)cc2)n1)/c1ccccc1 [CBK037614],96.3627,
FC(F)(F)Oc1ccc(-c2cncc(N3CCN(c4ccncc4)CC3)n2)cc1 [CBK059230C],70.3241,
CCCn1ncnc1C(C)NC(=O)Nc1ccnn1CC(C)C (stereo not drawn) [CBK307545],84.7895,
Cc1nc2c(c(=O)[nH]1)CN(Cc1cc(F)ccc1F)CC2 [CBK283953],94.3362,
Nc1ncnc(NCCc2ccccc2)n1 [CBK262701],83.1162,
NC1CC(c2cc(NCCCc3nnc4ccccn34)ncn2)C1 (stereo not drawn) [CBK307120],56.298,
CC(C)(N)CN(Cc1ccc(Cl)cc1)C(=O)Nc1ccccc1-c1ccccc1 [CBK004924],91.4096,
O=S(=O)(c1ccc(Cl)c(Cl)c1)c1ccc2nccc(N3CCNCC3)c2c1 [CBK036497C],77.3232,
CCOC(=O)c1c(C)oc2ccc(O)c(CN3CCCCC3)c12 [CBK263838C],101.965,
CN1CCC(N2CC[C@H](c3nnc(-c4cncn4C)o3)C2)CC1 [CBK289403],98.7112,
CC1CCN(Cc2c(O)ccc3occ(C(=O)c4ccccc4)c23)CC1 [CBK111319],94.426,

SMILES,% of control remaining [1],"% of control remaining (total inclusion area, 28.5 h, 10 µM, inhibitor)"
CN1CCN(Cc2c(C3CCCC3)[nH]c3ncccc23)CC1 [CBK285336],74.7961,
CN1CCN(C(=O)CCCN2C(=O)c3cccc4cccc(c34)C2=O)CC1 [CBK262383],114.576,
CC1(C)CC(=O)C(C(=S)Nc2ccccc2)=C(O)C1 [CBK288395],51.9113,
O=C(O)Cc1ccc(NC(=S)Nc2ccc([N+](=O)[O-])cc2)cc1 [CBK266959],114.193,
CN(Cc1ccccc1)C1CCN(Cc2ccccn2)CC1 [CBK264622G],111.344,
CCOC(=O)CCNC(=O)C1(c2ccccc2)CCCC1 [CBK149543],100.721,
COc1ccc2c(c1)c(C(=O)NCCn1nc(C)cc1C)c(C)n2C [CBK304615],41.4661,
CSCCN1CCC(Oc2cncc(OCC3COc4ccccc4O3)n2)C1 (stereo not drawn) [CBK084381],89.09,
O=C(O)c1ccc(CNCc2c(F)cccc2Cl)cc1 [CBK269496],,99.6625
Cc1ccc(C(C)C)c(OCc2ccc(C(=O)O)o2)c1 [CBK078089],97.2005,
CCc1ccc(NC(=N)Nc2nc(CSc3ncccn3)cc(=O)[nH]2)cc1 [CBK268836],109.628,
OCc1ccccc1-c1cn2ccnc2c(Nc2ccccc2)n1 [CBK037999],122.45,
Cc1ccccc1NC(=O)NCCCN1CCN(C)CC1 [CBK267837],99.8969,
CCOc1ccc(-n2c(N)c(C(=O)NCc3ccco3)sc2=S)cc1 [CBK265578],102.839,
COc1ccc(S(=O)(=O)N2CCN(C(=O)c3cc(-c4cccnc4)nc4c(C)cc(C)cc34)CC2)cc1OC [CBK267767],73.5341,
Cc1nc(CCNC(=O)c2nn(-c3cccc(C(C)C)c3)cc2O)cs1 [CBK305438],144.37,
O=C(Nc1ccc(N2CCNCC2)nc1)C1CCC1 [CBK004743T],113.886,
O=C(CCN1C(=O)c2ccccc2C1=O)N1CCOCCOCCN(C(=O)CCN2C(=O)c3ccccc3C2=O)CCOCCOCC1 [CBK260964],91.7156,
